The GPR68 mutational scans of Howard et al. (2025)

B1: GPR68, Q15743 (parent)
chain: MGNITADNSSMSCTIDHTIHQTLAPVVYVTVLVVGFPANCLSLYFGYLQIKARNELGVYLCNLTVADLFYICSLPFWLQYVLQHDNWSHGDLSCQVCGILLYENIYISVGFLCCISVDRYLAVAHPFRFHQFRTLKAAVGVSVVIWAKELLTSIYFLMHEEVIEDENQHRVCFEHYPIQAWQRAINYYRFLVGFLFPICLLLASYQGILRAVRRSHGTQKSRKDQIQRLVLSTVVIFLACFLPYHVLLLVRSVWEASCDFAKGVFNAYHFSLLLTSFNCVADPVLYCFVSETTHRDLARLRGACLAFLTCSRTGRAREAYPLGAPEASGKSGAQGEEPELLTKLHPAFQTPNSPGSGGFPTGRLA

Tests used:
[1] = variants of: B1; assay: cAMP reporter score (Enrich2 score, wild type = 0); higher = more signal; HEK293T, FACS bins
[2] = variants of: B1; assay: surface expression score (Enrich2 score, wild type = 0); higher = more signal; HEK293T, FACS bins

Variant	cAMP reporter score ([1]; pH 5.5)	cAMP reporter score ([1]; pH 6, modulator: ogerin)	cAMP reporter score ([1]; pH 6.5, modulator: ogerin)	surface expression score [2]	cAMP reporter score ([1]; pH 6)
MGNITADNSSMSCTIDHTIHQTLAPVVYVTVLVVGFPANCLSLYFGYLQIKARNELGVYLCNLTVADLFYICSLPFWLQYVLQHDNWSHGDLSCQVCGILLYENIYISVGFLCCISVDRYLAVAHPFRFHQFRTLKAAVGVSVVIWAKELLTSIYFLMHEEVIEDENQHRVCFEHYPIQADQRAINYYRFLVGFLFPICLLLASYQGILRAVRRSHGTQKSRKDQIQRLVLSTVVIFLACFLPYHVLLLVRSVWEASCDFAKGVFNAYHFSLLLTSFNCVADPVLYCFVSETTHRDLARLRGACLAFLTCSRTGRAREAYPLGAPEASGKSGAQGEEPELLTKLHPAFQTPNSPGSGGFPTGRLA [W181D]	1.96	-3.11	-1.49	-2	
MGNITADNSSMSCTIDHTIHQTLAPVVYVTVLVVGFPANCLSLYFGYLQIKARNELGVYLCNLTVADLFYICSLPFWLQYVLQHDNWSHGDLSCQVCGILLYENIYISVGFLCCISVDRYLAVAHPFRFHQFRTLKAAVGVSVVIWAKELLTSIYFLMHEEVIEDENQHRVCFEHYPIQAEQRAINYYRFLVGFLFPICLLLASYQGILRAVRRSHGTQKSRKDQIQRLVLSTVVIFLACFLPYHVLLLVRSVWEASCDFAKGVFNAYHFSLLLTSFNCVADPVLYCFVSETTHRDLARLRGACLAFLTCSRTGRAREAYPLGAPEASGKSGAQGEEPELLTKLHPAFQTPNSPGSGGFPTGRLA [W181E]	2.72	-0.093	-0.818	1.02	0.857

The least precise scores are not listed. Not listed are two conditions whose scores span a narrow range. Read del as a deletion of the residues named and ins as an insertion between two positions. For part of these data: The concentration of ogerin is not given here.
